The target in assay [1] is T1, GST-SPARC (aa 18–303) (UniProt P09486).
T1 sequence: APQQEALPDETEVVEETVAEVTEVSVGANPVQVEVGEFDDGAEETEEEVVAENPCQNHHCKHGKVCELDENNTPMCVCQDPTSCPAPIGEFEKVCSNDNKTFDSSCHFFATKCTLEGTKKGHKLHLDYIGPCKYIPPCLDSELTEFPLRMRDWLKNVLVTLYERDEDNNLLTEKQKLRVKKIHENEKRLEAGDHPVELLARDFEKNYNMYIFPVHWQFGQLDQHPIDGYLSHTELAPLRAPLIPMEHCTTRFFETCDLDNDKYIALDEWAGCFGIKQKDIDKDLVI
Kind of assay: pull-down; 10 μg GST fusion protein on Glutathione sepharose 4B beads incubated with SKOV3 cell lysate for 2 hours at 4°C; GST lysis buffer (20 mM Tris-HCl pH 7.4, 50 mM NaCl, 1% NP-40, 10% Glycerol, 0.1% ß-mercaptoethanol); four washes; Western blot; only the target purified. Background: In western blotting, separated proteins are transferred to a membrane and probed.

The target of assay [2] is T2, GST-SPARC Cterm (aa 154–303) (UniProt P09486).
T2 sequence: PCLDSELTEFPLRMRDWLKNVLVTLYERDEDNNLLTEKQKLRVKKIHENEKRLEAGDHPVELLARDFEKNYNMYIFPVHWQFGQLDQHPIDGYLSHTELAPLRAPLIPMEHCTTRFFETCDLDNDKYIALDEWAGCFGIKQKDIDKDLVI
The description is as above.

Assay [3] has as its target T3, GST-SPARC aa 154–256 (UniProt P09486).
T3 sequence: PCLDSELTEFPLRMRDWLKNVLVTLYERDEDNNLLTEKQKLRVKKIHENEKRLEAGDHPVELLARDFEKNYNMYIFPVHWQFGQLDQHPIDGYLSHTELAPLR
The description is as above.

In assay [4] the target is T4, GST-SPARC aa 18–266 (full-length SPARC lacking the last 37 amino acids) (UniProt P09486).
T4 sequence: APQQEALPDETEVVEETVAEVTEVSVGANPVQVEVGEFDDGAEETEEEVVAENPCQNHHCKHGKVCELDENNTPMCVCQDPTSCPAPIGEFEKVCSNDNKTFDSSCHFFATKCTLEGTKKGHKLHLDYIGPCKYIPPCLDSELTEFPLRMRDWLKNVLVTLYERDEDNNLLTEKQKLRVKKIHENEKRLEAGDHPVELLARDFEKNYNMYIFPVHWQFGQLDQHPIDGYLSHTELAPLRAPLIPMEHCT
The description is as above.

The target of assay [5] is T1, GST-SPARC (aa 18–303). Kind of assay: pull-down; 2 μg of rTGFBI or 2 μg human plasma fibronectin incubated with 10 μg of GST fusion protein; pull-down with Glutathione sepharose 4B beads, four washes in GST lysis buffer; Western blot; both purified.

No constants are given. Whether binding was seen depends on the method and setting. For some assays here: Binding seen in cells or lysates may run through a third protein. Some results given as binding are weak or reduced against the parent protein; the word gives no strength. Tags and fused reporters may be left off the sequences shown.

B1: transforming growth factor beta induced (TGFBI), endogenous in SKOV3 cells (protein, UniProt Q15582 24-683)
chain: GPAKSPYQLVLQHSRLRGRQHGPNVCAVQKVIGTNRKYFTNCKQWYQRKICGKSTVISYECCPGYEKVPGEKGCPAALPLSNLYETLGVVGSTTTQLYTDRTEKLRPEMEGPGSFTIFAPSNEAWASLPAEVLDSLVSNVNIELLNALRYHMVGRRVLTDELKHGMTLTSMYQNSNIQIHHYPNGIVTVNCARLLKADHHATNGVVHLIDKVISTITNNIQQIIEIEDTFETLRAAVAASGLNTMLEGNGQYTLLAPTNEAFEKIPSETLNRILGDPEALRDLLNNHILKSAMCAEAIVAGLSVETLEGTTLEVGCSGDMLTINGKAIISNKDILATNGVIHYIDELLIPDSAKTLFELAAESDVSTAIDLFRQAGLGNHLSGSERLTLLAPLNSVFKDGTPPIDAHTRNLLRNHIIKDQLASKYLYHGQTLETLGGKKLRVFVYRNSLCIENSCIAAHDKRGRYGTLFTMDRVLTPPMGTVMDVLKGDNRFSMLVAAIQSAGLTETLNREGVYTVFAPTNEAFRALPPRERSRLLGDAKELANILKYHIGDEILVSGGIGALVRLKSLQGDKLEVSLKNNVVSVNKEPVAEPDIMATNGVVHVITNVLQPPANRPQERGDELADSALEIFKQASAFSRASQRSVRLAPVYQKLLERMKH
For the molecule B1, the binding entry in assay [1] is on record as “binds”; in assay [2] it was “binds”; in assay [3] it was “no binding”; in assay [4] it was “no binding”.

B2: recombinant TGFBI (rTGFBI) (protein, UniProt Q15582 24-683)
chain: B1 chain
Take B2: in assay [5], the binding result was “binds”.

For the origin of these results see PMC5021370.
